First the molecules themselves.
B1: GBRAP_160_4337 (protein)
chain: SENTEKLIKFIKEEFEETLELIEGLSFEERKVLIEGTFGVILMELSEDESISDETEDKIDEIFDETLATLDANPDLSLEEIKELILETKEKIIKIIKESD
B2: GBRAP_52_6129 (protein)
chain: MEEEARRLVEELLELVRAGREEEARELARRIVEEKDDEFLKLVADELARRAKEASPEEQELIERAAEILAEEIREAGRDEVLADYVESRIAAALYEAEQA
B3: GBRAP_9_7154 (protein)
chain: MEELLKKVKEVIEDAFEEISKVVPEEVKPLVEELRKKAEERFEKLAKDPNVTKEEIVKEAKEILKELEEEISKKVSPEIKKIVRAIVLTAELEIEEIAEE
B4: GBRAP_160_4531 (protein)
chain: EEFLKKAEELIEEAAEEAIELVKGETVEQRIVIIEMEFGAVAMELAEDERASDEMVDVVLDERDKLVATLRANPDLTDEEIAALIEEMRDRIIEKLRELY
B5: GBRAP_43_5774 (protein)
chain: SKELVDGAADFALLAAESPEIPEDQKVKAIKAFFDLAADEGYLDEEKMKAVIDAAGKSLSAEALKEVLAHLKELAAKNPKLAEKLKAAAKRVEAAIKAKE
B6: GBRAP_83_6960 (protein)
chain: MITVVASSKKESIKSAVEAAIDLHLEEGIEVELEIFVTKENVETVVEELKKAIKAGVNVEVTLIGKESIKEELEKAKEEIEKAAKEYGVNVKVEVIVEEE
B7: GBRAP_9_7146 (protein)
chain: MEEMVEKIREVMEDAFEEVREIVPEEVKPLVDELREEALKRFEEVVADKSKTKEEIREAAKELIEEFTERVSEKVSPEIAKMVEAIGLTAKLEIEEIYEE
B8: GBRAP_139_3712 (protein)
chain: TPPEELVARARAIVAAHRDDLERLARLLAELMASADDETALAIARAAAEELADFSWEQWERLIELVEEELRKLGMDEDRVLAIAGEMEAVFAQHELAKEA
B9: GBRAP_48_5827 (protein)
chain: ATPPLEKLEELVRETVEEMKEVYEEAKKEGLSREEILRMIKALLGDLALELEEAGFEKAAEFLRDPENREELAEKLLELFDEGKYEEAYKYLLEKLREAE
B10: GBRAP_128_3525 (protein)
chain: SVEEARKRAEEVVEKIKNSTVEEAREITREFLEWLLGLSLEEVEAAAEVLEENLPKLSAEKLDAVADAIRENLGRFSPEKQRELLGVEVAALNEAEEKEE
B11: GBRAP_128_3586 (protein)
chain: SVEAVRAETRALMAAMKTADDATAKALATELAARFTTLSLEEAEAAAEVIEEELPGLSAEHLDILADALRAALPAMTPEKAELAADVLVAALNEAEEKDE
B12: GBRAP_35_5569 (protein)
chain: STDETIVEMTVNTIEALTLAVPDLDPATLETITRQVVALAREVIEDIKNNLEGLKRILEALRALLAAIRARGLDDPHLQAAAAAVEEAIRLAEKAIKEAE
B13: GBRAP_160_4005 (protein)
chain: SAEIEALIKEIEELVKETKEWMKGLSPEERLTLARGMVGEIIQLAIDSPAVSDETEDKIAEIGDETIARLEANANASLEVWEKILDDYLEKVKELLKSDE
B14: GBRAP_128_3453 (protein)
chain: SVEELRKKAEEIMEKIINSSLEEVPALAEELVDLIASSDLEGAEAIAEVVEEKLPKLSEEKLGILIDVLVARRPELSPEKAAVALEIAVAAGEEALEKME
B15: GBRAP_95_7083 (protein)
chain: SEDLEIAEDLMYTAVDLYDAGLKEQAARAIKAALDELEELGYKVEDKELLEKLLRYAVELALEHFDAEEVERMLKIAEKSGAPQEIIDALKEVLAKLKAA
B16: GBRAP_125_3098 (protein)
chain: SREELLEALRRIALALGFSEEDAEELARLAAEGSLRQTLVALFLAEGYEEVADLVAQLTEEQAAELVRRLAEYLEAHPDLTKEEVVEKAKELAEELLAEA
B17: GBRAP_128_3347 (protein)
chain: IDKEKVEEAEKLIKEMLTADKEEAKKLADELMEKLLTMSLEEVKEVVKIAKKLLPKYTAEQLDILADALREHRPLFTPEKAEEVNDLEVEALNEAEEKEE
B18: GBRAP_117_2581 (protein)
chain: EEERERVKEELRETVRRAGEELKAAESLSPEERERVEREVRERIREAVRRALEVLSEDEVLDIVEEELLKFDAETYFRVSLFVEEAIEEIRREREEEERR
B19: GBRAP_14_3806 (protein)
chain: MEERKKVVEEGVEETIEIVKEILADAPEEVREAVVKLIEEARDKIIEENLNPDEVAELTDELVAEVKKIMADLPEEVRAQVVAAIETGFGEIILEIEELE
B20: GBRAP_52_5951 (protein)
chain: ALEEALALLREALAAVLAGDEERARAILRELVAEFDLETIRAAAVALAKSLAGADDATLEAAVRLFDMLEDELIEAGVDEEEAELIRGDALAALAKAHAA
B21: GBRAP_80_6807 (protein)
chain: AEKRLEEALKKIEEVDPELAKKAKEIVELARKMGVSEETLAEFAEALAKLAEVDVEKAKELLEETKEDLEEEEKEGNTANAEAVLRVYAGEFLLEVEELE
B22: GBRAP_78_6637 (protein)
chain: EIEEKLEEALELVDEAAKLALELPEDLRNEILAELVDAASYIEEAIEEGGDLEEIKEAIEELEEALELLEAENRPELEPLREKVKEALEIAKKVEKEVKK
B23: GBRAP_184_5283 (protein)
chain: TVRHVEIEAETAAEAIAALEAAAAEARAAGARLDVTLLLRDADVAGALALFDLLKALRDEGIIRSATVGLEREVSDEELDTLLAAADAAGVRLVVAIPDE
B24: GBRAP_83_6906 (protein)
chain: MSVVAVNLTPENGEARVAEAVDIVVEEGWDLEILVGTDPAEVDAAVALFDRLNASGKKVRVEVVVVGRDEAAVRAAAARIRAAVAAQPNVELEELVEEVL
B25: GBRAP_137_3650 (protein)
chain: MKVVIELEEIDGLGVLTIKVYDPEKAEEIEELVLDIADKNKVYAVSIEREEDGTLVITVEGEIEVIEKFLKELVKELEEKYGLKAKEEEVDGKKVITLEK
B26: GBRAP_95_7080 (protein)
chain: DDDLEEVEILASTAIDLYEAGLKEAAAKAFRAALDELKELGYKVKDKELAIELLRYFADLALEHFTLEEVEEAIEAAKKIGAPEELIKRLEEKAEELKKR
B27: GBRAP_26_5467 (protein)
chain: MDAAFAAARDRIDAIAAKLPDPRAAAALRALADTELLELEERIEAGEDIDAAVDAARDAFLAEAREILEDAGLPEELIAKTLAEFEAVFDDLRAALKAAQ
B28: GBRAP_160_4733 (protein)
chain: EERIKELVEEALELFLEAVDDTEDLSKEEALAVYEGAAGESLMDFIEDPFVSDEMEDTAAEMLDELVEELKANYDASVEEKKEIVKEKMEELLEKLLKLS
B29: GBRAP_52_6220 (protein)
chain: SAEEAKKLAKEIVETVKKEGVEAAVKLLKEIAKKNSPELVTAVLDEIVELAKEESLEVAEKLLEALLKAEDDLIAAGVSEADVSDAIAGLAAVAVELEKK

The full ranking holds about 4,500 sequences; the median of “median log2 fold change of GCK-ALFA target abundance (FLAG IP / Myc IP barcode read proportion)” is about 0.078, and the lowest 2% start at about -0.6. The list shows a part of the results.

The target of the test is GABARAP, O95166. Kind of test: median log2 fold change of GCK-ALFA target abundance (FLAG IP / Myc IP barcode read proportion) (log2 ratio); each designed protein is fused to an ALFA-tag nanobody in HEK293 cells to bring the named protein to FLAG-tagged glucokinase (GCK); Myc marks an untargeted standard; higher = target protein stabilised (more abundant). The following applies: target protein: 3xFLAG-MCP-GCK-ALFA reporter; HEK293 landing pad (RPLP). In a few lines: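 HEK293 landing-pad cells received a recombined binder library fused to the ALFA nanobody and were induced with 2 μg mL^−1 doxycycline, then transfected with a plasmid encoding a FLAG-tagged target and a Myc-tagged standard. Lysates were collected after 48 h for anti-FLAG and anti-Myc immunoprecipitation, and the circular RNA barcodes were reverse transcribed, amplified and sequenced. Target abundance for each binder is the median log2 ratio of FLAG to Myc barcode read proportions. Barcodes had to reach a proportion of at least 10^−7 in both replicates, each binder needed at least 3 barcodes per replicate, a pseudocount of 10^−6 was applied, and the two replicates were pooled.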
Chain of GABARAP, O95166 (O95166 whole entry, the tested form may be a part): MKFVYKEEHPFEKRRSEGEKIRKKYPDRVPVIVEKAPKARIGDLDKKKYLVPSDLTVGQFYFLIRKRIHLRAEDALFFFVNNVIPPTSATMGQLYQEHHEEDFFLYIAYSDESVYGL
For B1, the “median log2 fold change” value is -0.0423. Take B2: the “median log2 fold change” value came to 0.192.

Take B3: the “median log2 fold change” value worked out at 0.173. As for B4, the “median log2 fold change” value turned out to be 0.116. Then B5, with 0.315; and B6, with 0.267; and B7, with 0.209. In the case of B8 it was 0.189; in that of B9, 0.199; in that of B10, 0.0693. With B11, the “median log2 fold change” value stood at 0.296. Then B12, with -0.994; and B13, with 0.201. As to B14, the “median log2 fold change” value was -0.0866.

Regarding B15, the “median log2 fold change” value is 0.184. For the molecule B16, the “median log2 fold change” value is -0.000994. In the case of B17 it was 0.388.

In the case of B18, the “median log2 fold change” value is 0.266.

For B19, the “median log2 fold change” value amounted to 0.0344.

Turning to B20, the “median log2 fold change” value is -0.0929. Then B21, with -0.289; and B22, with 0.066; and B23, with -0.0718. As for B24, the “median log2 fold change” value was -0.148. Then B25, with 0.447; and B26, with 0.264; and B27, with 0.199. Then B28, with -0.474; and B29, with 0.267.

The values are drawn from the supplement of paper PMC12632987.
